# Reference: the supplement of paper PMC11417369
# ± gives the standard deviation of the averaged measurements. The list shows a part of the results.
# Tested on: PfAP2-G AP2 domain (GST-tagged)
# Experiment: gcPBM binding intensity (ln(normalized median fluorescence intensity)); higher = stronger DNA binding
# Method in brief: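 DNA-binding domains from P. falciparum, fused to GST and produced in E. coli, were put on an Agilent 4 × 180k double-stranded probe array for 1 h in 1× PBS holding 1% milk, 0.2 mg/ml BSA, 0.5% salmon testes DNA and 0.03% Triton X-100. Probes were primer-extended, 36 bp long and drawn from intergenic genomic regions, with negative controls included. After Alexa488 anti-GST antibody detection and a 488 nm scan, binding intensity was set as the highest Masliner-normalised natural-log median intensity across replicate spots of either probe orientation.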
row,Sequence,gcPBM binding intensity (ln)
1,CTATTTTATATGTGCACACATATACACCCACAAATA [CACACA_site1131],10.8 ± 0.57
2,TTATAAAATTTTCTTCTATATTTTAATTATTCTCAT [TGCATGCA_negctrl_site571],9.68 ± 0.2
3,TAATTCTAAATAAATGTACACACAAAAATAAATGTA [CACACA_site8509],11.4 ± 0.88
4,AATTTATAAGAATATTGTACGTTTAATATATTGTAA [XGTACX_site7553],11.2 ± 0.67
5,ATTCTAATAGATAGTAGTACCTATAAGTTTTCTTTT [XGTACX_site2315],10.9 ± 0.52
6,GTTGTCCCCCTTTCTATGCACACTTTAAATTATTCA [CACACA_site52],11.4 ± 1.1
7,TATGTGTTCAGTATTGCACACACACTCCAAAATAAA [CACACA_site8018],10.4 ± 0.34
8,ACTTCATTTTATAAGTGTACATAATTTGTTTATATA [XGTACX_site5453],11.5 ± 0.85
9,ATAAATACTAGGCACACACACATATAGATTTATATA [CACACA_site7064],10.2 ± 0.13
10,AAAATAATAATTAAATAATAGTAAATGAAAAATAAA [CACACA_negctrl_site57],9.85 ± 0.13
11,AAGTTTATTATATATAAATTATTATATATATATATA [CACACA_negctrl_site189],9.91 ± 0.44
12,TTTATACATACATTCGTGCACATACGTATAACATAT,10.6 ± 0.38
13,ATATAAATATATGTATGTACACATTTTTTTTTTTTT [XGTACX_site247],11.4 ± 0.71
14,AGAATTATAAATTATAGTACATAAAATTTTGATGTA [XGTACX_site5726],11.2 ± 0.61
15,ATATCAACTGAATTGTATAGGCGATAAAAGAAAAAA [CACACA_negctrl_site1334],9.775 ± 0.021
16,CATGTGTGTATAATTTGTACATATACATAATAAATA [XGTACX_site2418],11 ± 0.61
17,CTAAACTAAACAAACTGTACACAAATAAAACAATAA [XGTACX_site8880],11.4 ± 1
18,AAACGATCTCGATGTTGTACACATTTATATAGAAAC [XGTACX_site4373],11.5 ± 0.85
19,TATACCTATAAATACACACACATATATAAATATGTA [CACACA_site6625],9.92 ± 0.16
20,TCCTTAAAAATCTAAAAAGAAAAAAACATATATTTT [GTGCAC_negctrl_site123],9.565 ± 0.092
21,ATTATTATATATATAACACACATAATTATATACTTA [CACACA_site1563],9.9 ± 0.042
22,AAGTCAATTTTTTTTTTTTTTTTTTAACTTATTAAT [TGCATGCA_negctrl_site14],9.605 ± 0.078

row,Sequence,gcPBM binding intensity (ln)
1,GATCACTGAATAAAGGCACACATCTGACTAATTTTT [CACACA_site66],9.935 ± 0.007
2,AAATAAAAACCATATCGTACAAAAATTTTTGTATTT [XGTACX_site7497],10.7 ± 0.24
3,ATATATATATATATATGTACTTAAAAATTTGTTTTG [XGTACX_site1514],11.2 ± 0.86
4,AATGTATATAATATTAATATGTAAATATATAATCAA [CACACA_negctrl_site1683],9.78 ± 0.15
5,TTAAAAAGTGCGTAGTGTACTAATATAAATAATACA [XGTACX_site2922],11.3 ± 0.88
6,TGAATAAATATATATACACACCCATATATATATATA [CACACA_site8833],10.1 ± 0.57
7,AAAAAAATAACAAAATGTATACAATATAACAAAAAT [GTGCAC_negctrl_site512],9.98 ± 0.028
8,TTTAAAAATTAATTCTGTACACATTTTTATTTTATT [XGTACX_site8],11.5 ± 0.8
9,TTCTTTCTTCAAAAGTGTACCAAATGTTAGAAAGGT [XGTACX_site4353],11.2 ± 0.77
10,ATATATATATATATGTGTACACAACAAAATAAAAAA [XGTACX_site7378],11.7 ± 0.79
11,AACATATACCCAGGTACATGCAAATATATATATTAT [TGCATGCA_site878],10.8 ± 0.52
12,TTTTCTTTTTTCTGTTGTACTAAAAATAATTTTGTA [XGTACX_site5171],11.3 ± 0.87
13,TATTTATATATTATGTGTCCACATGTAAGCTATCTT [XGTACX_site3887],11.2 ± 0.71
14,CCACTAATAAATATTACACACATATATATATATATT [CACACA_site3128],10 ± 0.16
15,TATACATTATCTTATGCATGCGCATCTGCATATAAA [TGCATGCA_site266],9.96 ± 0.085
16,TTTATTTATTATTAAAGTACTAAATCATATTATTAT [XGTACX_site992],10.8 ± 0.6
17,CTCATCCTTACATACACACACATATATATATATATA [CACACA_site103],10.3 ± 0.41
18,ATATTTAAATCGAAGGTGCGTATTTCCTTTTTTTTT [GTGCAC_site9632],10.2 ± 0.15
19,ATTCATTTCTATTTTACACACAATAAGTAACTTAAT [CACACA_site2850],10.19 ± 0.099
20,AGTATAAATAAATCATAAACATATATATATATATAT [GTGCAC_negctrl_site356],9.94 ± 0.39
21,ATATATACATATAACACACACATATATATATATATA [CACACA_site2575],9.99 ± 0.23
22,AATTGATTTATATATTGTACATATAAATTTATGTAT [XGTACX_site7785],11 ± 0.58

row,Sequence,gcPBM binding intensity (ln)
1,ATTCACTAAAAAATTGCATGCAATAAATTTTTTTTT [TGCATGCA_site962],9.63 ± 0.17
2,TTTTATTGTTGTTATACACACCATATAAAATATTTC [CACACA_site4983],10.2 ± 0.16
3,TCTTGGTTATTAAAAAAAAAAAAATATATTTTTCCT [TGCATGCA_negctrl_site445],9.78 ± 0.028
4,ATATTTATCTTTTTATGTACATATGCCCCTTTTCTG [XGTACX_site673],11.2 ± 0.66
5,AAGAAAATTAAATTAACACACATAAATATATATATA [CACACA_site1664],9.85 ± 0.28
6,GAGTTATTTCTTATTTAAGCATTCTACATATATATA [CACACA_negctrl_site239],9.97 ± 0.13
7,ATTTTACATATTTGCACACATATATTTAAATACATA [CACACA_site4627],9.975 ± 0.035
8,CTCAACGATAGAGAAACATGCAAGTATAAGCAACTA [TGCATGCA_site771],9.845 ± 0.092
9,GGGAAAATAAATAAAGTGCAGATATTAAAAGTTGTA,10.16 ± 0.014
10,TTGCATATTTCTAATTGTACATTATTTTATTTTATA [XGTACX_site8451],10.9 ± 0.54
11,AATAAAAAATATATGAGTACTAAATTGTTTTCTTAA [XGTACX_site8573],11.2 ± 0.64
12,TGTTAATTAAAGGACTGTACACTAATAATTCTATAA [XGTACX_site5195],11.5 ± 0.82
13,GTTCTAATATATTGCACACGTAAAAATATAGGTAAT [CACACA_site886],10.3 ± 0.17
14,AAATATGTACATATTATATATATATAATATATATTG [TGCATGCA_negctrl_site438],11.5 ± 1
15,TCATATGTTTCATGTTGTACATTGAAAGTTTGGCTA [XGTACX_site3202],11 ± 0.6
16,AAGAAAAAAATTTATACAAGAATTTTTTATTATTAA [TGCATGCA_negctrl_site587],9.65 ± 0.071
17,AATAAATATAGATTCACACACAAACATATATAAATA [CACACA_site7814],9.935 ± 0.049
18,AAAAAAAAAATATATATATATATATATATATAATTT [GTGCAC_negctrl_site32],9.32 ± 0.16
19,ATAAATAAATGGTGTTGTACTCTATTATATATATAT [XGTACX_site7835],11.3 ± 0.75
20,TAATTGTACGCCAATACACACAGAATTAGAATGTAG [CACACA_site102],11.8 ± 1.3
21,TACACAAGCGGACACACACACATATATATATATATA [CACACA_site4832],11.3 ± 0.96
22,AACATTCTAAAACACACACACACATATATATATATA [CACACA_site1052],10.1 ± 0.23

row,Sequence,gcPBM binding intensity (ln)
1,TATATATAAAAAAGCACACATACATACATACATAAT [CACACA_site890],10.26 ± 0.099
2,TTTTCACTTTTAAAAACATGCATACTTTATAAAATA [TGCATGCA_site967],10.1 ± 0.29
3,TGTAAATTTGGCATCACACATAAATAAACATATAAA [CACACA_site4497],10.1 ± 0.057
4,TATTAACATATATAAAGTACATTAAACAACATTGTA [XGTACX_site7667],11.1 ± 0.73
5,AAAAAAAAAAAACACACACACACATAAATATATATA [CACACA_site149],9.85 ± 0.2
6,GTGAAAAAAAACATATGTACTTATACACTAATCTAT [XGTACX_site7600],11.2 ± 0.75
7,TTATATATAATTACATGTACGTAGTATTATTTAAAT [XGTACX_site3418],11.3 ± 0.93
8,TTATCATTTTAATGGTGTACTCAATAAAAACTTTAA [XGTACX_site4595],11.5 ± 1.1
9,AAAAGAAATATTTATACACACACACTAACATATATA [CACACA_site8580],10.09 ± 0.035
10,CTATATTCGTTTAATAGTACATATATAACTAGACAA [XGTACX_site5770],11.1 ± 0.75
11,GTTGGTACCTTACTTTTACACACTTTTTTTTTTTTT [CACACA_site8441],11.1 ± 0.42
12,TATATATATATGTATACACACATACAAATATGTAAA [CACACA_site9238],10.1 ± 0.6
13,TGGTAAAGGAGCAAGATGATAAATCTCCATAACTTT [CACACA_negctrl_site492],9.7 ± 0.13
14,ATGTCTATAATAAGAACACACATATATTTAATTTAA [CACACA_site7394],9.83 ± 0.014
15,GTATTACCTTATTATTGTACTTTCATGATATATATG [XGTACX_site5382],11.2 ± 0.69
16,TTAATGAATGGACACACACACATATATATATATATT [CACACA_site5294],10.7 ± 0.42
17,CATAGATACATACACGCACACACATATATATATATA [CACACA_site13],10.5 ± 0.28
18,TACACAAGAAAATTCACACACACACCCATATATATA [CACACA_site3879],9.95 ± 0.028
19,AACATACATGTATATAGTACATATTACATCTGATAC [XGTACX_site3649],10.9 ± 0.47
20,ATGTAATTATAAGATTAATATACATAATTATATGTA [GTGCAC_negctrl_site458],9.54 ± 0.071
21,TGCTATTTTATTTATTCTTTTATAAAAGTATAATAT [XGTACX_negctrl_site358],10.135 ± 0.007
22,ATTTTTATAGAATGAACACACATATTATAGCATTTA [CACACA_site6842],9.95 ± 0.042
